# Experiments:
# Experiment in all cases: NCCLS broth microdilution MIC/MBC
# Assay type in all cases: cell-based
# Settings in all cases: Table 9, 35° C., 24 hours
# Streptococcus pyogenes = system: Streptococcus pyogenes
# [1] = system: Moraxella catarrhalis RMIT
# [2] = system: Neisseria gonorrhoeae WHO Strain VII
# [3] = system: Enterococcus faecalis ATCC 29212
compound,measurement,setting,value
C/C(=C\c1ccc2c(c1)OCO2)[N+](=O)[O-] [Compound (1)],MIC,Streptococcus pyogenes; Streptococcus pyogenes,16.8 µg/mL
same,MMC,Streptococcus pyogenes,16.8 µg/mL
same,MIC,[1]; Moraxella catarrhalis,32 µg/mL
same,MMC,[1],32 µg/mL
same,MIC,"[2]; Neisseria gonorrhoeae, read-out: MIC",2 µg/mL
same,MMC,[2],2 µg/mL
same,MIC,"[3]; Enterococcus faecalis, ATCC29212",32 µg/mL
same,MMC,[3],32 µg/mL
